Results reported in the supplement of paper PMC8728848.
This is one part of the list.

Tests used:
[1] = molecular target: Neu5Gc(a2-8)Neu5Gc(a2-6)Gal(b1-4)GlcNAc; assay: glycan array binding signal (z-score within array); higher = stronger binding; details: glycan notation: IUPAC condensed, linker removed
Outline: (§1)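 Negative Z-scores can be read as non-binding. The Z-score is calculated within each array and then averaged across arrays of one protein sequence at different concentrations or buffers and across linkers. Arrays, 3228 in all, were curated from the Consortium for Functional Glycomics database and kept only where the protein sequence was available.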

[2] = molecular target: Neu5Gc(b2-6)Gal(b1-4)GlcNAc; assay: as above; details: glycan notation: IUPAC condensed, linker removed
Outline: as §1

B1: SP16664D-bth-476-27-476 (Bacteroides thetaiotaomicron) (protein)
chain: DDLEVGKNIDESAYSGIYENNAYLRDGKSNLVSKVVELHGETYATTVKMGLSKTPNTATSAKVKIDAAYLETYNKAHNTDFALYPQDLVTFANEGILTVNANTKSAEVEMTIRAGEGLQEDKTYAIPVAISDQSSDITIKDEDAKHCIYLVKDMRNAGDAYKGEGVMQGYLFFEVNDVNPLNTLSFQLENGKLLWDVVVLFAANINYDAEAGRPRVQCNPNVQYLLDNNETLLQPLRRRGVKVLLGLLGNHDITGLAQLSEQGAKDFAREVAQYCKAYNLDGVNYDDEYSNSPDLSNPSLTNPSTAAAARLCYETKQAMPDKLVTVFDWGQMYGVATVDGVDAKEWIDIVVANYGSAAYPIGQMTKKQCSGISMEFNLGGGGSLSASKAQSMIDGGYGWFMGFAPSPAKYGSVFSRLQGGGEVLYGSNVAAPTIFYKKNDPTPYKYPDDL
glycan array binding signal (z-score) [1]: -0.109
glycan array binding signal (z-score) [2]: -0.051
